The campaign covered roughly 310,000 compounds. About 14,000 (4.5%) showed an effect of 50% or more. Effects have a minus sign here. The list shows a part of the results.
The compounds below were run against human ether-à-go-go-related gene (hERG) potassium channel (human, UniProt Q12809) (assay: primary screen, population patch clamp on CHO cells stably expressing hERG).
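Note: peak tail current of the secondary pulse compared with the same well before compound.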

Chain of human ether-à-go-go-related gene (hERG) potassium channel (Q12809 whole entry, looked up): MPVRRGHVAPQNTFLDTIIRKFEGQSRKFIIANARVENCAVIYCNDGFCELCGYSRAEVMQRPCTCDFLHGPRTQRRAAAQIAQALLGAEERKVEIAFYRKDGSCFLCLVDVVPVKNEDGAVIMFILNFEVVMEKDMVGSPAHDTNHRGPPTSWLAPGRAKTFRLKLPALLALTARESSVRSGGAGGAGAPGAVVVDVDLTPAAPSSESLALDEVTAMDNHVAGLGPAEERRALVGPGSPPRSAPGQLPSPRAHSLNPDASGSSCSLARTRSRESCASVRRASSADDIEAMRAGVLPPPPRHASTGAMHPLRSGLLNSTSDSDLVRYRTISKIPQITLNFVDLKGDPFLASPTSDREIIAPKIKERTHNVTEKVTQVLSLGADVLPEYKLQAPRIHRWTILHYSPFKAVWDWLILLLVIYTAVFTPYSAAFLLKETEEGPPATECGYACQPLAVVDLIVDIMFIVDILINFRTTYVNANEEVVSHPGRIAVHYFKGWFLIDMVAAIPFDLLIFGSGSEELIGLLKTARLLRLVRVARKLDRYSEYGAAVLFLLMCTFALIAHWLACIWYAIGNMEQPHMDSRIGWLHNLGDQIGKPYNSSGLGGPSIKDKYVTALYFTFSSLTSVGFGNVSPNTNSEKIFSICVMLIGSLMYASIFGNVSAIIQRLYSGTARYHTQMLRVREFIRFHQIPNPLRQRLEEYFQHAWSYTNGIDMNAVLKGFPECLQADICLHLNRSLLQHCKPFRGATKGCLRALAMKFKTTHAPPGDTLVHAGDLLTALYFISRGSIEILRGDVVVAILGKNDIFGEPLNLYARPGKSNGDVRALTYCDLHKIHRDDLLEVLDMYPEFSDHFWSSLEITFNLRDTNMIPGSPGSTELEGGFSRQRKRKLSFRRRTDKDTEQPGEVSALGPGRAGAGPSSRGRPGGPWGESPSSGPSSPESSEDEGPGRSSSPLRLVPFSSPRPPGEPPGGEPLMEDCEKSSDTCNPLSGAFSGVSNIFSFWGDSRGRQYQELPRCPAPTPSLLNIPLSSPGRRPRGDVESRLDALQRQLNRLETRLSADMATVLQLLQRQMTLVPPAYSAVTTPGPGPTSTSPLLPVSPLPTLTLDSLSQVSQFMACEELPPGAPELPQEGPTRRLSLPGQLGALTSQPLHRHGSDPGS

Row | Structure (SMILES) | hERG current change (%, negative = inhibition) at 10uM [%]
1 | O=C(Nc1cccc(O)c1)C1CC(c2cccc(Br)c2)=NO1 (stereo not drawn) | 4.7
2 | Cc1cccc(C(=O)N2CCCC(Nc3ccc(F)c(F)c3)C2)n1 (stereo not drawn) | -1.54
3 | O=C(O)C1=C[C@H](c2ccc(F)cc2)C[C@H](OCCCCO)O1 | 10.7
4 | O=C(CC(=O)NC1CCCCC1)N/N=C/c1ccccc1[N+](=O)[O-] | 13.3
5 | O=C(O)C(=O)O.O=C(c1ccccc1)N1CCN(CC2CC=CCC2)CC1 (stereo not drawn) | -23.7
6 | CC(=O)c1ccc2c(c1)Cc1cc(C(C)=O)ccc1-2 | 16.3
7 | O=C(CN1CCC(NC(=O)c2ccco2)CC1)Nc1cccc2ccccc12 | -12.4
8 | COC(=O)c1ccc(OCC(O)CN(CCO)CCO)cc1 (stereo not drawn) | -3.29
9 | CCCCOC(=O)c1ccc(NC(=O)CSCc2n[nH]c(=O)[nH]2)cc1 | 1.91
10 | O=C(c1ccccc1)c1cccn1CC(=O)N1CCN(C2CCCCC2)CC1 | -52.6
11 | S=C(c1ccc2c(c1)OCO2)N1CCCC1 | 10.7
12 | Cc1ccc(OCC(=O)NNC(=O)c2ccoc2C)c(Br)c1 | 9.16
13 | CC(C)C[C@H](NC(=O)c1nc[nH]c1C(=O)N1CCN(C(=O)OC(C)(C)C)CC1)C(=O)OCc1ccccc1 | -20.8
14 | O=C(Nc1cccc(Cl)c1Cl)c1snnc1-c1ccccc1 | 7.74
15 | O=C(NCCCN1CCCC1)c1ccc(CSCc2cccc(Cl)c2)o1 | -61.8
16 | COc1cccc(N2CCN(S(=O)(=O)c3cccc4nsnc34)CC2)c1 | -10.6
17 | O=C(N/N=C/C=C/c1cccc([N+](=O)[O-])c1)C(O)c1ccccc1 (stereo not drawn) | -3.57
18 | COc1ccc(Br)c2c1C(=O)CC2 | 7.31
19 | COc1ccc(OC)c(NS(=O)(=O)c2ccc3c(c2)n(C)c(=O)n3C)c1 | -5.85
20 | Cc1ccc(NC(=O)C2C(c3ccccc3)C=CC(c3ccccc3)C2C(=O)O)cc1 (stereo not drawn) | 2.4
21 | Cc1ccc(S(=O)(=O)N2CCN(C(=O)C3CCN(C(=O)c4ccc(F)cc4)CC3)CC2)c(C)c1 | -55.7
22 | Cn1cnnc1SCc1ccc(C#N)cc1 | 13.4
23 | CCOC(=O)c1ccc(NC(=O)Nc2cc(C)on2)cc1 | 10.8
24 | CC(=O)c1c(C)n(Cc2ccccc2)c2ccc(O)cc12 | 12.8
25 | NC(=O)CSP(=O)(c1ccccc1)c1ccccc1 | 13.2
26 | O=C(Nc1ccccc1Cl)c1cccc(NC(=O)c2cccs2)c1 | -4.91
27 | O=C(O)CCc1ccc(-c2cccs2)n1NC(=O)c1ccco1 | 1.1

Row | Structure (SMILES) | hERG current change (%, negative = inhibition) at 10uM [%]
28 | Cc1ccc(NC(=O)CN2C(=O)C3CCCCN3C(=O)c3ccccc32)cc1 (stereo not drawn) | -3.57
29 | COC(=O)c1ccc(COc2ccccc2/C=N/NS(=O)(=O)c2ccccc2)cc1 | 13.1
30 | CC1CC(NC(=O)/C(C#N)=C/c2ccc[nH]2)CC(C)(C)C1 (stereo not drawn) | 14.1
31 | COC(=O)C1(c2ccccc2)NC(c2cccs2)C2C(=O)N(c3ccccc3)C(=O)C21 (stereo not drawn) | 10.4
32 | COc1ccc(C(=O)NCCSc2ccc(C)cc2)cc1 | -11
33 | CC(=O)Nc1ccc(S(=O)(=O)NCCc2cc3ccc(C)c(C)c3[nH]c2=O)cc1 | -5.87
34 | CCOC(=O)c1c(/N=C/c2ccc(C)cc2O)sc2c1CCC2 | 2.86
35 | O=P(O)(O)Cc1ccccc1OP(=O)(c1ccccc1)c1ccccc1 | 7.99
36 | CCN1C(=O)N[C@@H](c2ccc(Br)cc2)C(C(C)=O)=C1C | -3.11
37 | Cc1cc(/C=N\O)c(C)n1-c1ccncc1 | 10.7
38 | COc1ccc(-c2nc(CS(=O)CC(=O)N3CCCC3)c(C)o2)cc1 (stereo not drawn) | 1.4
39 | CCCn1nc(NC(=O)C2CCCO2)c2cc3ccc(C)cc3nc21 (stereo not drawn) | -1.44
40 | C#CCOCCOCCOCCNc1nc(N2CCN(C(=O)[C@H]([C@@H](C)CC)n3cc([C@@H](N)CO)nn3)CC2)nc(N2CCN(C(=O)[C@H](Cc3cc4ccccc4[nH]3)n3cc([C@@H](N)C(C)CC)nn3)CC2)n1.Cl (stereo partly drawn) | -19
41 | CSc1cccc(NC(=O)C2(S(=O)(=O)c3ccc(C)cc3)CC2)c1 | -30.7
42 | Cc1cc(OCc2cc(C(=O)N(C)C3CCOC3)no2)cc(C)c1Cl (stereo not drawn) | -73.6
43 | O=C(COc1ccc2ccccc2c1)N1CCN(C(=O)c2ccc([N+](=O)[O-])cc2)CC1 | -76.5
44 | COc1ccccc1NC(=O)CSc1nc2nc(C)cc(C)c2c(=O)[nH]1 | 4.82
45 | CCN1C(=O)[C@H]2[C@@H](c3ccc(-c4ccc5c(c4)OCO5)c(OC)c3)N[C@@](CC(C)C)(C(=O)OC)[C@H]2C1=O.O=C(O)C(F)(F)F | 0.96
46 | CCCCCN=C(C)c1c(O)c2ccccc2oc1=O | -9.7
47 | COc1cc(C2SCCS2)cc(Br)c1Oc1ncccc1[N+](=O)[O-] | 16.1
48 | NC(Cc1c[nH]c2ccc(OCc3ccccc3)cc12)C(=O)O (stereo not drawn) | 14.5
49 | COc1cc2c(cc1OC)CN(C(=S)Nc1c(C)cccc1C)CC2 | 1.44
50 | COc1ccc(NC(=O)c2cccc(N3C(=O)C4C5C=CC(C5)C4C3=O)c2)cc1Cl (stereo not drawn) | 2.2
51 | COc1ccc(N2CCN(S(=O)(=O)c3c(C)noc3/C=C/N(C)C)CC2)cc1 | -0.914
52 | Cc1ccc(CC(=O)Nc2ccncc2)cc1 | 6.93
53 | C/C(=N\NC(=O)c1ccc(CSc2nncn2C)cc1)c1ccc(C#N)cc1 | -26
54 | O=C(COc1ccc(S(=O)(=O)NCc2ccccc2)cc1Cl)N1CCOCC1 | 18.1

— publication PMC4336329 (PLoS ONE, 2015)
